In PubChem BioAssay AID540317 (National Center for Advancing Translational Sciences (NCATS), 2011):
Out of some 390,000 compounds screened, about 2,200 (0.56%) were called active. This list was built around the results that the source calls inconclusive (neither active nor inactive); the mix of calls is not that of the screen. Calls follow the shape of the dose curve; as a rule, active = well fitted inhibition curve with a large enough effect; inconclusive = small, poorly fitted or top-dose-only effect; inactive = no such curve, though single readings can be large or run the other way. Potencies beside an inconclusive call are fits to weak or partial responses and may not hold up.
Also: nearly all actives have a fitted effect of over 70% in size.
Potency is read from the fitted curve at half-maximal effect; tags tell the direction and shape of the fitted curve.

Each compound was assayed against Chromobox protein homolog 1 (Homo sapiens) (UniProt P83916) (assay: HTS for Inhibitors of HP1-beta Chromodomain Interactions with Methylated Histone Tails). Conditions: AlphaScreen HP1-beta / biotin-H3K9me3 peptide binding; series mostly up to 114 µM; activity change, negative = inhibition: at the top concentration.
Chain of UniProt P83916 (P83916 whole entry, looked up): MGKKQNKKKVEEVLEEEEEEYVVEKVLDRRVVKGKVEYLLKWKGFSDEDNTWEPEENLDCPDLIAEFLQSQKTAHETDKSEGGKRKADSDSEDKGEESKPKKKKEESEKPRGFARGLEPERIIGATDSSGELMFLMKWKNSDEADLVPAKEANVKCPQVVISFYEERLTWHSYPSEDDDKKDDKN
How it was run: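 HP1-beta protein (50 nM final) preincubated 30 min at room temperature with biotinylated H3(1-18)K9me3 peptide (50 nM) in PBS pH 7.4, 0.01% Tween-20, then compound added for 30 min. AlphaScreen streptavidin donor/nickel chelate acceptor beads (10 ug/mL final), 30 min dark, luminescence read.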
`CS(=O)(=O)Nc1ccc(C(=O)NCCSc2ccc(Cl)cc2)cc1` was tested, and the “activity change, negative = inhibition” value was inactive: 49.1%.
`O=C(NCCCn1ccnc1)c1ccc(C(F)(F)F)cc1` was tested, and the “activity change, negative = inhibition” value was inactive: 37.6%.
In the case of `O=[N+]([O-])c1ccc(/C=C/C2=NN(c3ccccc3)C(c3ccco3)C2)o1` (stereo not drawn), the Potency is reported as inconclusive: 8.91 µM [inhibitor, partial curve].
With `COc1ccc(NC(=O)C2CCCN(S(=O)(=O)c3ccc4[nH]c(=O)ccc4c3)C2)cc1Cl` (stereo not drawn) the “activity change, negative = inhibition” value was inactive: 34.8%.
In the case of `CCN(c1cccc(C)c1)C(C(=O)Nc1ccc(OC)cc1)c1cc2c(cc1[N+](=O)[O-])OCO2` (stereo not drawn), the Potency is reported as inconclusive: 35.5 µM [inhibitor, partial curve].
For `O=C(c1ccc(Br)o1)N1N=C(c2ccc(Cl)cc2)CC1c1ccco1` (stereo not drawn), the Potency was inconclusive: 50.1 µM [inhibitor, partial curve].
`O=[N+]([O-])c1cc(C(F)(F)F)ccc1NC1CCN(Cc2ccccc2)CC1` was tested, and the Potency was active: 50.1 µM.
For `CCOc1ccc(NC(=S)N2CCN(S(C)(=O)=O)CC2)cc1`, the “activity change, negative = inhibition” value was inactive: 38.8%.
For `Cc1ccc(-c2noc(-c3ccccc3OCC(=O)Nc3ccccc3[N+](=O)[O-])n2)cc1`, the Potency was inconclusive: 15.8 µM [inhibitor, full curve].
For `CCOC(=O)C(NCCCO)c1ccccc1` (stereo not drawn), the Potency was inconclusive: 20 µM [inhibitor, full curve].
For `CCN(CC(=O)Nc1ccc(NC(C)=O)cc1)C(=O)CSc1ncnc2sc(C)c(C)c12`, the “activity change, negative = inhibition” value was inactive: 7.66%.
In the case of `CCN(CCCNC(=O)CCc1nc(-c2ccc(C)cc2)no1)c1cccc(C)c1`, the Potency is reported as inconclusive: 20 µM [inhibitor, full curve].
For `Cc1ccc(NC(=O)CNCc2ccc(Cl)cc2Cl)cc1S(=O)(=O)N(C)C`, the Potency was active: 35.5 µM.
In the case of `N#CC1=C(N)OC2=C(C(=O)CCC2)C1c1cc2c(cc1Br)OCO2` (stereo not drawn), the “activity change, negative = inhibition” value is reported as inactive: 13.7%.
In the case of `O=C1C(=O)N(c2ccccn2)C(c2ccc(F)cc2)/C1=C(/O)c1ccc(Br)cc1` (stereo not drawn), the “activity change, negative = inhibition” value is reported as inactive: 16.6%.
In the case of `Cc1ccc(Nc2nc(-c3ccc(O)c(O)c3)cs2)nc1`, the Potency is reported as inconclusive: 56.2 µM [inhibitor, partial curve, poor fit].
For `COc1ccc2nc(SCC(=O)N(C)C3CCCCC3)[nH]c2c1`, the “activity change, negative = inhibition” value was inactive: 14.6%.
`O=[N+]([O-])c1ccccc1NCc1ccccc1Cl` was tested, and the Potency was inconclusive: 35.5 µM [inhibitor, partial curve].
In the case of `Cc1cc(NC(=O)CN2CCN(C)CC2)no1`, the Potency is reported as inconclusive: 8.91 µM [inhibitor, full curve].
In the case of `C(=N\N1CCN(c2ccccn2)CC1)/c1cccc2ccccc12`, the Potency is reported as inconclusive: 22.4 µM [inhibitor, full curve].
With `Oc1ccc(C2CNCc3sccc32)cc1O` (stereo not drawn) the Potency was inconclusive: 56.2 µM [inhibitor, partial curve, poor fit].
In the case of `CC(C(=O)NC1CCCCC1)N1CCN(C)CC1` (stereo not drawn), the Potency is reported as inconclusive: 25.1 µM [inhibitor, partial curve, poor fit].
With `O=c1[nH]c2cc([N+](=O)[O-])c(NCCO)c([N+](=O)[O-])c2[nH]1` the “activity change, negative = inhibition” value was inactive: 0.199%.
`CC(C)C(c1nnnn1Cc1ccc(F)cc1)N1CCN(c2ccc(O)cc2)CC1` (stereo not drawn) was tested, and the Potency was active: 70.8 µM.
For `O=C(Cc1ccc([N+](=O)[O-])cc1)NCc1ccncc1`, the “activity change, negative = inhibition” value was inactive: 25.7%.
For `CC1CCCC(C)N1/N=C/c1ccccc1Br` (stereo not drawn), the Potency was inconclusive: 56.2 µM [inhibitor, partial curve].
`Cn1cc(C=C2C(=O)OC3(CCCCC3)OC2=O)c2ccccc21` was tested, and the “activity change, negative = inhibition” value was inactive: 26.6%.
For `Cc1ccc2[nH]c3c(c2c1)CN(C(=O)CN1c2ccc(F)cc2CCC1C)CC3` (stereo not drawn), the Potency was inconclusive: 20 µM [inhibitor, full curve].
In the case of `CCc1nc2ccc(C(=O)NC3CCC(C)CC3)cc2nc1CC` (stereo not drawn), the “activity change, negative = inhibition” value is reported as inactive: 24.2%.
For `O=C1C(Nc2cccc(O)c2)=C(N2CCCCC2)C(=O)c2ccccc21`, the Potency was active: 22.4 µM.
For `CCN(CC)c1ccc2nc3c(=O)n(C)c(=O)n(C)c3nc2c1`, the “activity change, negative = inhibition” value was inactive: 17%.
`Cc1nn(CC(=O)N2CCN(c3ccccc3F)CC2)c(=O)c2cccn12` was tested, and the “activity change, negative = inhibition” value was inactive: 34.3%.
For `Cc1c(Cc2ccccc2)c(=O)oc2c(O)c(O)ccc12`, the Potency was inconclusive: 31.6 µM [inhibitor, partial curve].
For `COc1ccc2c(c1)-c1nc(N)sc1CC2`, the Potency was inconclusive: 44.7 µM [inhibitor, partial curve].
In the case of `O=C(c1ccc(N2CCCCC2)c([N+](=O)[O-])c1)N1CCN(c2ccccn2)CC1`, the Potency is reported as inconclusive: 25.1 µM [inhibitor, partial curve, poor fit].
With `CCOC(=O)c1sc(NC(=O)/C=C/c2cnn(CC)c2C)c(C(=O)OCC)c1C` the “activity change, negative = inhibition” value was inactive: -12.7%.
For `O=[N+]([O-])c1cc(C(F)(F)F)cc([N+](=O)[O-])c1N1CCCNCC1`, the “activity change, negative = inhibition” value was inactive: -1.38%.
For `O=C(Cn1ncc(Cl)c(Cl)c1=O)N1CCN(Cc2ccccc2)CC1`, the “activity change, negative = inhibition” value was inactive: 34.7%.
`CC(=O)n1nc(-c2ccccc2)nc1NCc1ccc(N(C)C)cc1` was tested, and the Potency was inconclusive: 39.8 µM [inhibitor, partial curve].
For `Clc1cccc(Cl)c1C1Nc2cccc3cccc(c23)N1`, the Potency was inconclusive: 31.6 µM [inhibitor, partial curve].
In the case of `Cn1c(CNc2cccc(C(F)(F)F)c2)n[nH]c1=S`, the Potency is reported as inconclusive: 35.5 µM [inhibitor, single point].
`COc1ccc(NC(=O)COc2ccc(C(=O)OCC(=O)N(C(C)C)C(C)C)cc2OC)cc1` was tested, and the Potency was inconclusive: 35.5 µM [inhibitor, single point].
For `CN(C)CCCCOc1cccc(Br)c1`, the Potency was inconclusive: 20 µM [inhibitor, partial curve, poor fit].
For `Cn1c(SCc2c(F)cccc2Cl)nc2ccccc2c1=O`, the “activity change, negative = inhibition” value was inactive: 98.1%.
For `CN1CCN(/N=C/c2ccc(-c3ccccc3)cc2)CC1`, the Potency was inconclusive: 39.8 µM [inhibitor, partial curve].
`Cc1cccc(NC(=O)Cn2c(O)c(N=NC(N)=S)c3ccccc32)c1` was tested, and the Potency was inconclusive: 15.8 µM [inhibitor, partial curve, poor fit].
With `COc1ccc(CN(CCC(c2ccccc2)c2ccco2)C(=O)c2ccco2)cc1` (stereo not drawn) the “activity change, negative = inhibition” value was inactive: 6.66%.
`CCc1c(C)sc(NC(=O)c2cc(-c3ccc(OC)c(OC)c3)on2)c1C#N` was tested, and the Potency was inconclusive: 17.8 µM [inhibitor, single point].
